Assay results published in PubChem BioAssay AID1240 (Sanford-Burnham Center for Chemical Genomics, 2008).
Among all 50,000 compounds or so, about 800 (1.6%) showed an effect of 50% or more. This is one part of the list.

These compounds were tested against Bcl-2-like protein 10 (Homo sapiens) (UniProt Q9HD36) (assay: Phenotype converters, Bcl-B/TR3 peptide binding displacement, primary biochemical FP (AID 1240;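 also: 0% = Bcl-B with tracer peptide and DMSO and 100% = tracer peptide lacking Bcl-B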)). Conditions: GST-Bcl-B / FITC-TR3 peptide fluorescence polarization; stronger effect = higher value; compound at 3.75 mg/L.
UniProt Q9HD36, sequence (Q9HD36 whole entry, looked up): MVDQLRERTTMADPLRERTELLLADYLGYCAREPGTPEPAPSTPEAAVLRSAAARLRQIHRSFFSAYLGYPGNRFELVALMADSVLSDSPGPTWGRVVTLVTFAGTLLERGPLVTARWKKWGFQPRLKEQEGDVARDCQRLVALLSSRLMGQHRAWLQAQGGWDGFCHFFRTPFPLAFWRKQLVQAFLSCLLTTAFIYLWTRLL

SMILES | displacement
O=C(O)CCn1c(=O)c2cc3c(=O)n(CCC(=O)O)c(=O)c3cc2c1=O | -3.8%
COc1ccc(CNC(=O)c2nn3c(c2Cl)NC(c2ccco2)CC3C(F)(F)F)cc1 (stereo not drawn) | 8.3%
CCOc1ccc(S(=O)(=O)n2cnc3cc([N+](=O)[O-])ccc32)c2ccccc12 | 0.4%
O=C(NN1C(=O)/C(=C/c2ccc(O)c(O)c2)SC1=S)c1ccc(Br)cc1 | 29.8%
COc1ccc(/C(C)=N/NC(=O)CN(c2ccc(C)cc2)S(=O)(=O)c2ccccc2)cc1OC | 3.8%
Nc1ncnc2c1[nH]c(=S)n2[C@@H]1O[C@H](CO)[C@H](O)C1O (stereo partly drawn) | -9.4%
COc1ccc(C2Nc3ccccc3C(=O)N2c2ccc(Cl)cc2)cc1OC (stereo not drawn) | 9.9%
O=C(c1ccc(-c2ccccc2)cc1)N1CCNCC1 | -15.8%
CCN(CC)c1ccc(N=Cc2c(O)n(C)c(=O)n(C)c2=O)cc1 | 6.3%
C=CCN(CC=C)C(=O)COc1ccccc1 | 5.9%
O=C(Nc1ccccc1F)C1CC(=O)N(c2cccc([N+](=O)[O-])c2)C1 (stereo not drawn) | -5.6%
Fc1cccc(Cl)c1Cc1noc(-c2ccccc2)n1 | 14%
O=c1oc(-c2ccccc2Cl)nc2ccc(-c3ccc4nc(-c5ccccc5Cl)oc(=O)c4c3)cc12 | 11.6%
COC(=O)C1=C(C)N=c2s/c(=C\c3ccc(OC)c(OC)c3)c(=O)n2C1/C=C/c1ccccc1 (stereo not drawn) | 49.5%
O=c1[nH]c(=S)[nH]c(O)c1C(c1ccncc1)c1c(O)[nH]c(=S)[nH]c1=O | 6.1%
O=C(/C=C/c1ccc(F)cc1)NCc1ccccn1 | -35.8%
O=S(=O)(Nc1ccc(O)c(-c2nc3ccccc3o2)c1)c1ccccc1 | -6.9%
COc1cccc(/C=N/NC(=O)c2cc(C34CC5CC(CC(C5)C3)C4)[nH]n2)c1 | -7.4%
c1ccc(Nc2nc(-c3ccccn3)cs2)cc1 | -2.8%
COc1ccc(NC(=O)/C(=C\c2cccs2)NC(=O)c2ccccc2)cc1 | -3.6%
Nc1ncnc2ncc3c4ccccc4[nH]c3c12 | 10%
NC(=O)c1ccccc1NC(=O)c1cncc(Br)c1 | 8%

SMILES | displacement
COc1cccc(NC(=O)COc2cc(C)c(Cl)c(C)c2)c1 | 13.1%
O=C(CSc1ncn[nH]1)Nc1ccc(Br)cc1 | -2.3%
C/C(=N\NC(=O)c1cccc(Cl)c1)c1ccccc1O | -5.3%
COc1cc(/C=N/N2C(=O)c3ccccc3C2=O)c([N+](=O)[O-])cc1OC | -1.8%
COc1cc(CN2CCN(C(=O)c3cccc(F)c3)CC2)cc(OC)c1O | 24.5%
N/C(=N\OC(=O)c1cccc(Cl)c1)c1ccncc1 | -12.8%
COC(=O)c1cc(C(=O)Nc2ccc(Br)cc2F)cc([N+](=O)[O-])c1 | -4.2%
O=C(COc1ccc(Cl)cc1)Nc1cc(C(F)(F)F)cc(C(F)(F)F)c1 | -10.6%
COc1cc(/C=C/c2[nH]c(=O)[nH]c(=O)c2[N+](=O)[O-])cc(Br)c1O | -1.3%
COc1ccccc1NC(=O)NCc1ccccn1 | -2.3%
CCCNC(=O)C(F)(F)C(F)(F)C(=O)NCCC | -3.9%
O=C(/C=C/c1cc2c(cc1Br)OCO2)c1ccc(Cl)cc1 | 10.2%
CCN(CC)c1ccc(C=Nc2ccc(Sc3ccc([N+](=O)[O-])cc3)cc2)cc1 | 4.8%
COC(=O)c1ccccc1NC(=O)c1ccc(CN2CCN(c3ccccc3)CC2)cc1 | 23.3%
C=CCOC(=O)C1=C(C)NC(=O)NC1c1cccc(Oc2ccccc2)c1 (stereo not drawn) | -2.1%
CCc1ccc(S(=O)(=O)Nc2ccc([N+](=O)[O-])c3ccccc23)cc1 | -9.4%
Cc1ccc(S(=O)(=O)NC(C)(C)CNC(c2ccccc2)c2ccccc2)cc1 | -5.7%
C=CCNC(=O)CN(c1cccc(Br)c1)S(=O)(=O)c1ccccc1 | 0.2%
CC(C)c1ccccc1OCCCN1CCOCC1 | -6%
Cc1cc(C)c(C#N)c(SCC(=O)Nc2cccc(C)c2C)n1 | -6%
CCC(=O)N1c2ccc(OC)cc2C(=C2SC(C(=O)OC)=C(C(=O)OC)S2)C(=S)C1(C)C | 6.7%
O=C(c1cccc(Cl)c1)N1CCN(Cc2ccccc2[N+](=O)[O-])CC1 | 10.9%

SMILES | displacement
O=c1c([N+](=O)[O-])c(N2CCCCCC2)c2ccccc2n1-c1ccccc1 | -13.4%
CC(C)CC(NC(=O)/C(=C\c1ccc2c(c1)OCO2)NC(=O)c1ccco1)C(=O)O (stereo not drawn) | -1.7%
CC1=C(C(=O)Nc2cc(Cl)ccc2C)C(c2ccccc2Br)NC(=S)N1 (stereo not drawn) | -8.3%
O=C(Nc1ccccc1)Nc1nnc(C23CC4CC(CC(C4)C2)C3)s1 | 17.6%
O=[N+]([O-])c1cc(Br)ccc1C1CC1 | -6%
Cc1cccc(CN2CCN(Cc3ccncc3)CC2)c1 | -1.1%
Cc1cccc(NC(=O)C(=O)NCCO)c1C | 6.1%
C=CCOc1ccccc1C=C1C(=O)NC(=O)NC1=O | 10.1%
O=C(Nc1ccc(C2CCCCC2)cc1)C1=C(O)CCn2c1nc1ccccc12 | -0.7%
COc1ccc(/C=C2\C(=O)N(c3ccc(F)cc3)N=C2C)c(OC)c1 | 12.9%
CCOC(=O)c1c(C)nc2n(/N=C/c3ccc([N+](=O)[O-])cc3)c3ccccc3n12 | 4.9%
COc1ccc(/C=C2\SC(N3CCC(C)CC3)=NC2=O)cc1OC | -16.2%
Cc1ccc(Nc2cc(N3CCOCC3)c3noc4c3c2C(=O)c2ccccc2-4)cc1 | 5.8%
O=C(NC(=S)N1CCOCC1)c1cccs1 | -0.6%
COc1cccc(NC(=O)COc2ccc3ccccc3c2)c1 | 0%
Cc1ccc(N2C(=O)CC(N3CCN(c4ccc([N+](=O)[O-])cc4)CC3)C2=O)cc1 (stereo not drawn) | 1.2%
Cc1cccc(N2C(=O)C(=O)/C(=C(\O)c3ccccc3)C2c2cccc([N+](=O)[O-])c2)c1 (stereo not drawn) | 9.5%
COc1ccc(C2C(C(=O)Nc3ccccc3)=C(C)N=C3SCC(=O)N32)cc1 (stereo not drawn) | -15.9%
O=C(c1ccc(F)cc1)N1CCN(Cc2ccccc2Cl)CC1 | 2.1%
CCOC(=O)N1CCN(c2ccccc2)CC1 | -1.5%
CCOc1ccc(N2C(=O)CC(N3CCC(C(N)=O)CC3)C2=O)cc1 (stereo not drawn) | 8.1%
Nc1ccc(Cl)cc1-n1nc(-c2ccc(F)cc2)c2ccccc2c1=O | 12.6%

SMILES | displacement
CCCCCC(=O)N/N=C/c1cccnc1 | -2.1%
Cc1ccc(S(=O)(=O)Oc2ccccc2/C=C2/SC(=S)N(Cc3ccccc3)C2=O)cc1 | 17.1%
COc1cccc(-c2nc3sc4c(c3c(=O)[nH]2)CCCC4)c1 | 1.3%
CC(=O)Nc1ccc(OC(=O)c2cccc([N+](=O)[O-])c2)cc1 | -7.7%
C/C(=N\NS(C)(=O)=O)c1ccccc1 | 6.7%
O=[N+]([O-])c1cc2c(cc1C=Nc1ccc(F)cc1)OCO2 | 6.7%
O=C(NCC1CCCO1)c1c(Cl)cccc1Cl (stereo not drawn) | 10.5%
CC(C)(C)C(=O)/C=C(/c1ccccc1)N1CCCCC1 | -8%
CCN(CC)c1ccc(N=Cc2ccc(OC)c3ccccc23)cc1 | -0.5%
CC(=C\C(=O)O)/C(=C\CC(C)CCCC(C)C)C(=O)O (stereo not drawn) | -11.3%
O=S(=O)(c1ccccc1)N1CCSC1c1ccc(Br)cc1 (stereo not drawn) | -0.2%
CSc1nc(O)c(Cc2ccccc2)c(=O)n1-c1ccccc1 | -9.8%
COc1ccc(S(=O)(=O)N2CCN(Cc3ccc(Br)cc3)CC2)cc1 | -4.1%
O=C1C2C3C=CC(C3)C2C(=O)N1/N=C/c1ccc(I)o1 (stereo not drawn) | 7.3%
Cc1cc(C)cc(N(CC(=O)NC2CC3CCC2C3)S(=O)(=O)c2ccccc2)c1 (stereo not drawn) | 6.2%
Cc1cccc(N=C2NC(=O)/C(=C\c3ccc(Br)cc3)S2)c1C | -4.5%
CCCCN(CCCC)C(=O)CSc1nc2sc(C)c(C)c2c(=O)[nH]1 | 10%
COc1ccc(C(=O)Oc2ccc(/C=C3\SC(N)=NC3=O)cc2)cc1 | 10.1%
COC(=O)C1=NNC2(C)C(=O)N(c3ccccc3C)C(=O)C12 (stereo not drawn) | 1.4%
CC(C)N(CC#CC(O)(c1ccccc1)c1ccccc1)C(C)C | 6.5%
O=S(=O)(Nc1ccc(O)c2ccccc12)c1ccc(F)cc1 | 12.2%
CC(=O)N(c1ccccc1)C1C=CS(=O)(=O)C1 (stereo not drawn) | 0.5%

SMILES | displacement
O=C(NCc1cccnc1)c1cccc(F)c1 | 6.9%
CC1=C(C(=O)OCCCc2ccccc2)C(c2ccc(Cl)c(Cl)c2)CC(=O)N1 (stereo not drawn) | -1.9%
CCOC(=O)c1sc(NC(=O)c2cc(Cl)ccc2[N+](=O)[O-])c(C(=O)OCC)c1C | 1%
Cc1sc(NC(=O)C2CC3CCC2C3)c(C(N)=O)c1C (stereo not drawn) | 3.3%
COc1ccc(N(CC(=O)Nc2ccc(OC)cc2OC)S(=O)(=O)c2ccc(C)cc2)cc1 | 1.4%
Cc1cc(C)c(OCCCCN2CCCC2)c(Cl)c1 | 13.9%
CCCS(=O)(=O)c1c(S(=O)(=O)CCC)c2cc(-c3ccncc3)ccn2c1C(=O)c1ccc(F)cc1 | 3.2%
O=C1N/C(=N/N=C/c2ccccc2)SC1Cc1cc(Cl)ccc1Cl (stereo not drawn) | 28.6%
COc1cc(NC(=O)c2cnn3c(C(F)(F)F)cc(-c4ccco4)nc23)c(OC)cc1Cl | 1%
COc1cc(/C=C2/SC(=S)N(CCC(=O)Nc3ccc4c(c3)OCO4)C2=O)cc(OC)c1OC | 16.6%
CC1=C(C(=O)OCCc2ccccc2)C(c2c(F)cccc2Cl)CC(=O)N1 (stereo not drawn) | -4.5%
COc1ccc(C2C(C(=O)OCc3ccccc3)=C(C)NC3=C2C(=O)CCC3)c(OC)c1 (stereo not drawn) | -2.2%
COc1cc(OC)c(C2NC(=S)NC(C)=C2C(=O)Nc2ccccc2)cc1OC (stereo not drawn) | 6.8%
O=C1CC(c2ccccc2)CC(O)=C1C=NC1CCCC1 (stereo not drawn) | -5.4%
Cc1cc2nc(-c3cccc(NC(=O)c4ccccc4F)c3)oc2cc1C | 14.4%
O=C(c1ccncc1)N1CCN(Cc2ccccn2)CC1 | -2.5%
CC1=NN(c2ccccc2)C(=O)C1C=C1C(=O)c2ccccc2C1=O (stereo not drawn) | -1.3%
CCCCCCCNC1CC(=O)N(c2ccc(Cl)cc2)C1=O (stereo not drawn) | -4.1%
Cc1nnc(C)n1/N=C/c1ccccc1O | -19%
CC1=C(C(=O)OC2CCCCCC2)C(c2cccc(F)c2)C2=C(CCCC2=O)N1 (stereo not drawn) | -2.7%
